Measured values: PubChem BioAssay AID686978 (National Center for Advancing Translational Sciences (NCATS), 2013)
Several values for one entry are separate records, joined by “and”; a condition that tells them apart may be missing. Identical values can stand only once. In all, about 420,000 compounds went through this assay and about 64,000 (15%) were called active. The shares of active, inactive and inconclusive entries below differ from those in the screen. Calls come from the whole dose curve; as a rule, active = well fitted inhibition curve with a large enough effect; inconclusive = small, poorly fitted or top-dose-only effect; inactive = flat fitted curve, though single readings scatter. Potencies of inconclusive entries are left out as doubtful fits. Some structures have more than one record in an assay (separate samples or runs), and their calls can disagree.

Assay: qHTS for Inhibitors of human tyrosyl-DNA phosphodiesterase 1 (TDP1): qHTS in cells in absence of CPT; note: nearly all actives have a fitted effect of over 55% in size
Settings: DT40 Tdp1-/- hTDP1 cells, no CPT, ATP luminescence, 48 h; activity change, negative = growth inhibition: at 46.2 µM (top of the series) unless noted
In short: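 Readout: luminescence from CellTiter-Glo after 30 min in the dark at RT. Cells: DT40 Tdp1-/- with stable hTDP1, 400/well. Exposure: compounds alone, ≥48 hr, 37 °C.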
% is set by controls: 0 for no effect and ±100 for the full control effect; potency is the fitted concentration of half-maximal effect; tags give direction and shape of the fitted curve.

| SMILES | activity change, negative = growth inhibition | Potency |
| --- | --- | --- |
| O=C(NCc1ccccc1C(F)(F)F)C1CC(c2cccc(F)c2)=NO1 (configuration not stated) | inactive: 2.01% |  |
| CCOC(=O)[C@@H]1[C@H]2COc3ccccc3[C@@H]2N2C(=O)N(c3ccc(F)cc3)C(=O)[C@@]12C | inactive: -14.8% |  |
| CCOC(=O)C1=C(O)C(=O)NC(c2ccccc2)=C(OCC)C1 | inactive: -2.16% |  |
| COc1cc2ccccc2cc1C(=O)N(CCN(C)C)c1nc2c(F)cccc2s1 | inactive: -8.8% |  |
| CC(=O)Nc1ccc(S(=O)(=O)NC2(C(F)(F)F)N=C(c3ccccc3)NC2=O)cc1 (configuration not stated) | inactive: -1.16% |  |
| Cn1c(=O)c2c(nc(SCc3cccnc3)n2Cc2ccccc2)n(C)c1=O |  | inconclusive [inhibitor, single point] |
| Cc1ccc(Nc2c(-c3ccc(N4CCOCC4)cc3)nc3ncccn23)cc1C |  | inconclusive [inhibitor, single point] |
| Cc1ccc2nc(-c3ccc(C)o3)c(Nc3ccccc3)n2c1 |  | active: 4.47 µM |
| CCCCN(CCCNC(=O)C1CCN(S(=O)(=O)CC)CC1)c1ccccc1 |  | inconclusive [inhibitor, single point] |
| Cc1cc(N/N=C/c2cccc(Cl)c2)nc(NCc2ccccc2)n1 |  | active: 7.31 µM |
| CN(C)CCCN1c2ccccc2Sc2ccccc21 |  | inactive and active: 20 µM and active: 18.4 µM |
| CC(C)OCCCNC(=O)c1ccccc1Oc1ccccc1 |  | inconclusive [inhibitor, single point] |
| CC(C)c1ccc(NC(=O)C2CCCN(S(=O)(=O)c3ccc4[nH]c(=O)ccc4c3)C2)cc1 (configuration not stated) | inactive: -23.9% |  |
| CCCS(=O)(=O)c1csc(C(=O)OC)c1N | inactive: 0.399% |  |
| COc1ccc(C2(C)CC(C)(C)Nc3ccccc32)cc1 (configuration not stated) |  | inconclusive [inhibitor, single point] |
| CCN(Cc1ccccc1)c1ccc(N=Nc2nn(C)c(C)c2[N+](=O)[O-])cc1 | inconclusive: -36.4% [inhibitor] |  |
| CCOCCCNC(=O)C(NC(=O)c1ccccc1O)c1ccccc1 (configuration not stated) | inactive: -7.83% |  |
| CC1(c2ccc(OC(F)F)cc2)NC(=O)N(CC(=O)Nc2ccc(OC(F)F)cc2)C1=O (configuration not stated) |  | inconclusive [inhibitor, single point] |
| CCOC(=O)c1cc(NC(=O)c2cccnc2)ccn1 | inactive: 1.41% |  |
| CCCCn1c2ccc(F)cc2c2nnc(SCCN3CCOCC3)nc21 |  | active: 29.1 µM |
| CC(=O)c1ccc(NC(=O)C(C)OC(=O)c2cccc(-n3cnnn3)c2)cc1 (configuration not stated) |  | inconclusive [inhibitor, single point] |
| COc1cccc(NC(=O)C2(C)CCN2Cc2ccc3ccccc3c2)c1 (configuration not stated) | inconclusive: -30.4% [inhibitor] |  |
